In patent US20250066451A1 (SWEDISH ORPHAN BIOVITRUM AB PUBL, published 2025) one finds EC50 data, which are given here for 42 molecules.

T1: Human IL-1R-I-Fc (Creative BioMart cat. no. IL1RI-771H) (human, UniProt P14778 18-332, limits assumed)
T1 construct: Bought Fc fusion; also called hIL-1R-I-Fc; hIL-1RI-Fc; not shown: Fc part of the bought fusion
T1 sequence (looked up): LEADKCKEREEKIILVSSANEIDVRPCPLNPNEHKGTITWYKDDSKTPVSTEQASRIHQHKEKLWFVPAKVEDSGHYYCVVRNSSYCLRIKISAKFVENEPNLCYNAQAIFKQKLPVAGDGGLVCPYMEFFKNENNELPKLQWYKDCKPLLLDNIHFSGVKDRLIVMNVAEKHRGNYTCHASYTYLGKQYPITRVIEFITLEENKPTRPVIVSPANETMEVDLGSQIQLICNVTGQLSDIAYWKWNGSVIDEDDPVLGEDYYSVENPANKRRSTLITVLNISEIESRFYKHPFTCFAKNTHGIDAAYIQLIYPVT

B1: Z18808 (designed binder)
chain: AQHDEALEVDAKYAKEVEEVQMEIFRLPNLTRKQYTAFIRKLLDDPSQSSELLSEAKKLNDSQAPKVDYVLAEAKVLANRELDKYGVSDYYKNLINNAKTVEGVKALIDEILAALPYVPG
notes: Z-ABD001 fusion in periplasmic extract; also called Z-ABD
B2: Z18843 (designed binder)
chain: B1 chain with V17I, V20I, R26Y, K33R
notes: as for B1
B3: Z18814 (designed binder)
chain: B1 chain with V20I, R26A, K33R
notes: as for B1
B4: Z18968 (designed binder)
chain: B1 chain with V17L, M22L, K33R, R40I
notes: as for B1
B5: Z18826 (designed binder)
chain: B1 chain with V17I, V20I, R26G, K33R
notes: as for B1
B6: Z18966 (designed binder)
chain: B1 chain with V17T
notes: as for B1
B7: Z18827 (designed binder)
chain: B1 chain with V17T, E19K, K33R
notes: as for B1
B8: Z18889 (designed binder)
chain: B1 chain with K33R
notes: as for B1
B9: Z18917 (designed binder)
chain: B1 chain with V17I, V20I, M22F, F25Y, R26D, L43F
notes: as for B1
B10: Z18820 (designed binder)
chain: B1 chain with V17L, E19A, V20I
notes: as for B1
B11: Z18912 (designed binder)
chain: B1 chain with V17T, V20I, R26H
notes: as for B1
B12: Z18886 (designed binder)
chain: B1 chain with V17I, E19A, V20I, R26G
notes: as for B1
B13: Z18846 (designed binder)
chain: B1 chain with V17I, V20I, R26H, K33R
notes: as for B1
B14: Z18904 (designed binder)
chain: B1 chain with V20I, M22L, R26A
notes: as for B1
B15: Z18831 (designed binder)
chain: B1 chain with V17I, R26Y, K33R
notes: as for B1
B16: Z18813 (designed binder)
chain: B1 chain with V20I, R26A, L43F
notes: as for B1
B17: Z18825 (designed binder)
chain: B1 chain with V17T, E19K, R26G, L43F
notes: as for B1
B18: Z18866 (designed binder)
chain: B1 chain with V17I, V20I, R26H
notes: as for B1
B19: Z18811 (designed binder)
chain: B1 chain with V17L, E19T, R26H
notes: as for B1
B20: Z18874 (designed binder)
chain: B1 chain with V17L, E19A, V20I, R26H, K33R
notes: as for B1
B21: Z18908 (designed binder)
chain: B1 chain with V17I, V20I, M22L, R26A
notes: as for B1
B22: Z18882 (designed binder)
chain: B1 chain with R26D, K33R
notes: as for B1
B23: Z18982 (designed binder)
chain: B1 chain with V17I, M22L, R26S
notes: as for B1
B24: Z18888 (designed binder)
chain: B1 chain with E19A, V20I, R26H
notes: as for B1
B25: Z18810 (designed binder)
chain: B1 chain with V17T, R26G, L43F
notes: as for B1
B26: Z18878 (designed binder)
chain: B1 chain with R26Y
notes: as for B1
B27: Z18836 (designed binder)
chain: B1 chain with E19A, V20I, R26G, K33R
notes: as for B1
B28: Z18819 (designed binder)
chain: B1 chain with V17T, R26G, K33R
notes: as for B1
B29: Z18890 (designed binder)
chain: B1 chain with V17L, E19K, R26G, K33R
notes: as for B1
B30: Z18920 (designed binder)
chain: B1 chain with V17T, V20I, K33R
notes: as for B1
B31: Z18881 (designed binder)
chain: B1 chain with V17I, V20I, R26G, K33R, L43F
notes: as for B1
B32: Z19012 (designed binder)
chain: B1 chain with M22L, R26A
notes: as for B1
B33: Z18875 (designed binder)
chain: B1 chain with V17I, E19A, V20I, R26H, K33R
notes: as for B1
B34: Z18832 (designed binder)
chain: B1 chain with V20I, R26H, K33R
notes: as for B1
B35: Z18971 (designed binder)
chain: B1 chain with V17I, E19S, M22L, R26G, K33R
notes: as for B1
B36: Z18879 (designed binder)
chain: B1 chain with E19Y, V20I, K33R
notes: as for B1
B37: Z18887 (designed binder)
chain: B1 chain with E19V, V20I, K33R
notes: as for B1
B38: Z18877 (designed binder)
chain: B1 chain with V20I, R26Y
notes: as for B1
B39: Z18834 (designed binder)
chain: B1 chain with V20I, R26G, K33R
notes: as for B1
B40: Z18967 (designed binder)
chain: B1 chain with V17I, E19V, R26H
notes: as for B1
B41: Z18884 (designed binder)
chain: B1 chain with E19I, V20I, R26G, K33R
notes: as for B1
B42: Z18824 (designed binder)
chain: B1 chain with V17T, E19A, R26H, K33R
notes: as for B1

For orientation: EC50 means the concentration giving half of the maximal effect. Read a low EC50 as higher potency in that assay.

Changes are numbered by the printed parent chain. Names may count otherwise.

In the experiment the target is T1, Human IL-1R-I-Fc (Creative BioMart cat. …). Briefly: ELISA, captured Z-ABD, hIL-1R-I-Fc titrated. On the technique in general: ELISA stands for enzyme-linked immunosorbent assay.
As to B1, the midpoint of the response, the EC50, lay at 0.4 nM.

B2 came in with an EC50 of 0.28 nM.

B3 came in with an EC50 of 0.27 nM.

In turn, B4 displayed an EC50 of 0.2 nM.

The molecule B5 gave an EC50 of 0.24 nM.

B6 returned an EC50 of 0.25 nM.

Consider B7, for which the EC50 was 0.24 nM.

For B8, a half-maximal effect (EC50) was put at 0.24 nM.

As for B9, the EC50 amounted to 0.22 nM.

B10 displayed an EC50 of 0.33 nM.

B11: the EC50 was found to be 0.14 nM.

With B12, the EC50 came out at 0.29 nM.

On to B13, for which the EC50 came to 0.19 nM.

The molecule B14 returned an EC50 of 0.38 nM.

The molecule B15 had an EC50 of 0.29 nM.

Take B16: the 50% effective concentration (EC50) is 0.2 nM.

Molecule B17 displayed an EC50 of 0.35 nM.

Consider B18, for which it took 0.31 nM to reach a half-maximal effect (EC50).

B19 had an EC50 of 0.28 nM.

Regarding B20, the EC50 was 0.22 nM.

In the case of B21, the midpoint of the response, the EC50, lay at 0.24 nM.

Molecule B22 came in with a concentration for a half-maximal effect (EC50) of 0.31 nM.

B23 returned an EC50 of 0.25 nM.

For B24, the EC50 was 0.23 nM.

B25 yielded an EC50 of 0.29 nM.

On to B26, for which the EC50 worked out at 0.37 nM.

Take B27: the EC50 was determined as 0.23 nM.

B28 came in with an EC50 of 0.29 nM.

As for B29, it took 0.25 nM to reach a half-maximal effect (EC50).

In turn, B30 returned an EC50 of 0.24 nM.

As for B31, the EC50 was found to be 0.28 nM.

For the molecule B32, the EC50 came to 0.24 nM.

With B33, the EC50 worked out at 0.29 nM.

B34: the EC50 turned out to be 0.15 nM.

Regarding B35, the EC50 came to 0.35 nM.

With B36, the response was half-maximal at 0.34 nM (EC50).

B37 returned an EC50 of 0.21 nM.

The molecule B38 showed an EC50 of 0.35 nM.

As for B39, the EC50 stood at 0.25 nM.

Regarding B40, the EC50 is 0.31 nM.

As to B41, it took 0.23 nM to reach a half-maximal effect (EC50).

Take B42: the EC50 came to 0.28 nM.
